Results reported in the supplement of paper PMC4967469.
IC50 is the fitted dose that halves viability relative to control wells, and lower means more sensitive; where the fit passes the top or lowest dose, that dose stands as a limit. AUC, from the same fit, is the share of area under the viability curve across the 256-fold dose range; it is 1 without any effect and falls as sensitivity rises. For some assays here: Any top dose called inferred was derived from the fitted curves, not read from the paper. For some assays here: Where an entry number is given, a second screen of the drug exists; the two often differ.

How the values were obtained:
Assay in all cases: Viability of human cancer cell lines after 72 h of drug (GDSC screen)
XMD13-2 = compound: O=C(NC1CC1)c1cccc(-c2ccc3c(NC(=O)C4CC4)n[nH]c3c2)c1 [XMD13-2]; conditions: top dose 10.24 µM; top dose inferred
Protocol: (§1)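 Human cancer cell lines in 384-well plates, medium with 10% serum, drug for 72 h over a 256-fold dose range (nine 2-fold or five 4-fold steps up to the top dose). Adherent lines were fixed and stained with the nucleic acid dye Syto60, suspension lines read with resazurin; signal relative to control wells, capped at 0 and 100%. One two-parameter sigmoid per drug and line, fitted in a mixed model over all curves with the slope shared within a line.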

Vinblastine = compound: CC[C@]1(O)C[C@@H]2CN(CCc3c([nH]c4ccccc34)[C@@](C(=O)OC)(c3cc4c(cc3OC)N(C)[C@H]3[C@@](O)(C(=O)OC)[C@H](OC(C)=O)[C@]5(CC)C=CCN6CC[C@]43[C@@H]65)C2)C1 [Vinblastine]; conditions: top dose 0.1 µM; top dose inferred
Protocol: as §1

PF-562271 = compound: CN(c1ncccc1CNc1nc(Nc2ccc3c(c2)CC(=O)N3)ncc1C(F)(F)F)S(C)(=O)=O [PF-562271]; conditions: top dose 2.56 µM; top dose inferred
Protocol: as §1

Afatinib = compound: CN(C)C/C=C/C(=O)Nc1cc2c(Nc3ccc(F)c(Cl)c3)ncnc2cc1O[C@H]1CCOC1 [Afatinib]
Protocol: as §1

SNX-2112 = compound: CC1(C)CC(=O)c2c(C(F)(F)F)nn(-c3ccc(C(N)=O)c(N[C@H]4CC[C@H](O)CC4)c3)c2C1 [SNX-2112]; conditions: top dose 2.56 µM
Protocol: as §1

[1] = top dose 0.5 µM, screen: GDSC drug entry 1032
[2] = top dose 10 µM, screen: GDSC drug entry 1377, top dose inferred

Cell Line	AUC (XMD13-2)	IC50 (XMD13-2) [nM]	AUC (Vinblastine)	IC50 (Vinblastine) [nM]	AUC (PF-562271)	IC50 (PF-562271) [nM]	AUC (Afatinib; [1])	IC50 (Afatinib; [1]) [nM]	AUC (Afatinib; [2])	IC50 (Afatinib; [2]) [nM]	AUC (SNX-2112)	IC50 (SNX-2112) [nM]
SNG-M (endometrium, adherent)	0.882	> 10200	0.471	5.23	0.934	> 2560	0.929	> 500	0.837	6480	0.415	94
DND-41 (T-cell leukaemia, suspension)	0.711	2310	0.702	21.4	0.918	> 2560	0.983	> 500	0.951	> 10000	0.173	19.3
UM-UC-3 (bladder, adherent)	0.941	> 10200	0.553	8.64	0.972	> 2560	0.987	> 500	0.971	> 10000	0.321	52.6
NY (osteosarcoma, adherent)	0.974	> 10200	0.497	6.12	0.949	> 2560	0.978	> 500	0.89	> 10000	0.948	> 2560
LS-123 (large intestine, adherent)	0.971	> 10200	0.899	> 100	0.899	> 2560	0.862	> 500	0.898	> 10000	0.814	2020
RO82-W-1 (thyroid, adherent)	0.974	> 10200	0.469	5.03	0.922	> 2560	0.981	> 500	0.954	> 10000	0.928	> 2560
OCI-M1 (acute myeloid leukaemia, suspension)	0.921	9210	0.695	18.9	0.993	> 2560	0.994	> 500	0.995	> 10000	0.346	67
A3-KAW (B-cell lymphoma, suspension)	0.874	6610	0.532	7.49	0.907	2240	0.991	> 500	0.956	> 10000	0.266	40.7
MDA-MB-415 (breast, adherent)	0.98	> 10200	0.674	22.7	0.959	> 2560	0.98	> 500	0.965	> 10000	0.97	> 2560
NCI-H647 (non-small cell lung carcinoma, adherent)	0.809	5660	0.618	13.4	0.919	> 2560	0.982	> 500	0.973	> 10000	0.455	120
SU-DHL-6 (B-cell lymphoma, suspension)	0.833	4390	0.303	2.06	0.901	1790	0.984	> 500	0.995	> 10000	0.246	38
NB5 (neuroblastoma, adherent)	0.958	> 10200	0.644		0.965	> 2560	0.851	391	0.858	8420	0.885	> 2560
NUGC-4 (stomach, adherent)	0.982	> 10200	0.69	21.3	0.962	> 2560	0.872	477	0.194	76.8	0.703	598
MFE-296 (endometrium, adherent)	0.968	> 10200	0.488	5.78	0.858	2360	0.979	> 500	0.984	> 10000	0.914	> 2560
KLE (endometrium, adherent)	0.932	> 10200	0.871	> 100	0.94	> 2560	0.894	> 500	0.931	> 10000	0.782	1780
RERF-LC-KJ (lung adenocarcinoma, adherent)	0.972	> 10200	0.535	7.83	0.973	> 2560	0.927	> 500	0.974	> 10000	0.914	> 2560
CESS (acute myeloid leukaemia, suspension)	0.696	2070	0.928	> 100	0.964	> 2560	0.989	> 500	0.982	> 10000	0.161	18.3
NCI-H2141 (small cell lung carcinoma, suspension)	0.952	> 10200	0.894	> 100	0.967	> 2560	0.991	> 500	0.975	> 10000	0.898	> 2560
